Data published in the supplement of paper PMC10338343.
± gives the standard deviation. Over roughly 6,600 sequences, “pre-steady-state target cleavage rate” has its median near 0.07; the highest 2% begin near 0.72. This is a selection; strong and weak results do not stand in their true shares.

tested on: MIWI (PIWIL1) piRISC loaded with Kctd7 piRNA (30 nt); experiment: pre-steady-state target cleavage rate (min^-1); MIWI and MILI are mouse PIWI proteins and EfPiwi is from a freshwater sponge; tags in brackets are library labels; higher = faster piRNA-guided slicing of the target; conditions: guide: Kctd7 piRNA 5'p-UGUUAAUCUCUCAGAGAAGGUGACAGUGAU; auxiliary factor: 500 nM mouse GTSF1
Description: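 Cleave-'n-Seq: a library of target RNAs (target site embedded in constant flanks, ACAGCATTCCGCGTTAGTGATATCCG... 5' flank; DNA-blocked outside the site) at 0.1 nM was incubated with 1 nM active mouse MILI or MIWI piRISC (synthetic 5'-monophosphorylated piRNA guide) with or without 500 nM mouse GTSF1 at 33 °C for 1 min to 16 h. Uncleaved targets were sequenced and normalised to non-target controls, and the pooled three trials were fitted to a burst-and-steady-state model to give the pre-steady-state cleavage rate (min^-1; k3 is constrained to at most 1e-4). Sequence is the target site only; target names encode pairing extent (gX:gY) and contiguous / 1-mismatch / 2-mismatch / bulge geometry. Fits with R² ≤ 0 are excluded.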

| Sequence | pre-steady-state target cleavage rate |
| --- | --- |
| UAGUGACAGUGCUUCUCUGAGAGAUUAGACA | 0.00704 ± 0.0024 |
| UAGUCACACACCUUCUCUGAGAGAUUAUGA | 0.0796 ± 0.016 |
| UAGUGAGUCACCUUCUCUGAGAGAUAACA | 0.0971 ± 0.025 |
| UAGUCUGUCACCUUCUCUGAGAGAAAUUGA [g7:g26:cont:t1A] | 0.024 ± 0.01 |
| UAGUGACACACCUUCAUCUGAGAGAUUAACA | 0.0163 ± 0.0059 |
| UAGUGUGUCACCUUCUCUGUGAGAUUUUGA | 0.009 ± 0.0042 |
| UAGUGACAGUGGAAGAGACAGUGAUUAAGA | < 0.0001 |
| UUCACUGUCACCUUCUCUGAGUCAUUAUGA | 0.00338 ± 0.0028 |
| UUCACUGUCACCUUCUCUGAGAGAUGUAACA | 0.324 ± 0.047 |
| UAGACUGUCACCUUCUCUGACGAGAUUAACA | 0.00549 ± 0.0027 |
| UUCACUGUCACCUUCUUUGAGAGAUUAACA | 0.564 ± 0.026 |
| UAGUGACUCACCUUCUCUGAGAGAUUAAGA | 0.194 ± 0.031 |
| UAGUGACAGACCUUCUCUGAGAGAUGAACA | 0.0316 ± 0.0088 |
| UAGUGAGUCACCUUCUCUGAGGAUUAACA | 0.00984 ± 0.0056 |
| UAGUGACAGUGCUUCUCUGACAGUUUAACA | < 0.0001 |
| UAGUCUGUCACCUUCUCUGAGAGAUAUUCA | 0.211 ± 0.045 |
| UAGUGACACACCUUCUCUGAGAGAUAAUCA | 0.074 ± 0.02 |
| AUCACUGUCACCUUGACUGAGAGAUUAACA | 0.338 ± 0.058 |
| UAGUCUGUCACCUUCGUCUGAGAGAUUAACA | 0.0668 ± 0.015 |
| UAGUGUGUCACCUUCUCUGAGAGAUUAACU [g2:g25:cont:t1U] | 0.347 ± 0.035 |
| UUGUCUGUCACCUUCUCUGAGAGAUAUUGA | 0.0211 ± 0.008 |
| UAGACUGUCACCUUGUCUGUGAGAUUAACA | 0.152 ± 0.013 |
| UAGACUGUCACCUUCUCUCAGAGAAUAACA | 0.0205 ± 0.0044 |
| UACACACACACCUUCUCUGAGAGAUUAUGA | 0.0717 ± 0.018 |

| Sequence | pre-steady-state target cleavage rate |
| --- | --- |
| UAGUCUGUCACCUUCUCUGGGAGAUUAACA | 0.485 ± 0.018 |
| UAGUGACAGUCCUUCUCUGAGAGAAAUAGA | < 0.0001 |
| UACACUGUCACCUUCUCUGAGAGUUUAUCA | 0.137 ± 0.041 |
| UAGUGACACACCUUCGUCUGAGAGAUUAACA | 0.0126 ± 0.004 |
| AUCACUGUCACGUUCUCUGAGAGUUUAACA | 0.125 ± 0.018 |
| UAGUGACUCACCUUCUCUGAGAGAUUAAUCA | 0.247 ± 0.03 |
| UAGUGACAGACCUUCUCUGAGAGUUUUACA | 0.00492 ± 0.0047 |
| UAGUGAGUCACCUUCUCUGAGAGAUAUUCA | 0.0772 ± 0.021 |
| UAGACUGUGACCUUCUCUGAGAGAUUAAGA | 0.204 ± 0.029 |
| UUCACUGUCACCUUCUCUGAGAGUAUAUGA | 0.0917 ± 0.025 |
| UAGUGACAGUGGAAGAGUGAGAGAAAAACA | < 0.0001 |
| UAGUCUGUCACGUUCUCUGAGUGAUUAACA | 0.0123 ± 0.0026 |
| UAGUCUGACACCUUCUCUGAGAGUUUAACA | 0.211 ± 0.032 |
| UAGUGUGUCUCCUUCUCUGAGAGAUAUUGA | 0.00519 ± 0.0043 |
| UAGUGACUCACCUUCUCGAGAGAUUAACA | 0.0114 ± 0.0051 |
| UUGUCUGUCACCUUCUCUGAGAGAUUUUGA | 0.034 ± 0.013 |
| AUCACUGUCACCUUCUCUGAGAGUAAAUGA | 0.0743 ± 0.027 |
| UACACUGUCACCUUCUCUGAGAGUUUUUGA | 0.119 ± 0.036 |
| AUCACUGUCACCAUCUCUGACAGAUUAACA | 0.186 ± 0.022 |
| UAGUGAGUCACCUACUCUGAGAGAUUAUCA | 0.244 ± 0.051 |
| UACUCUGUGACCUUCUCUGAGAGAUUAACA | 0.58 ± 0.026 |
| UAGUGAGUCACCUUCCUCUGAGAGAUUAACA | 0.217 ± 0.019 |
| UAGUGAGUCUCCUUCUCUGAGAGAUUAACA | 0.262 ± 0.023 |
| AUCACUGUCACCUUCUCUGAGGAGAUUAACA | 0.022 ± 0.0084 |

| Sequence | pre-steady-state target cleavage rate |
| --- | --- |
| UUCACUGUCACCUUCUCUGAGAGACUAACA | 0.282 ± 0.032 |
| UAGUGAGUCACCUUCUCUCAGACAUUAACA | 0.0358 ± 0.0085 |
| UACACUGUCACCUUCUCUCACAGAUUAACA | 0.0406 ± 0.011 |
| AUCACUGUCACCUUCUCUGAGAGAUUACA | 0.329 ± 0.051 |
| UUCACUGUCACGUUCUCAGAGAGAUUAACA | 0.172 ± 0.013 |
| UAGACUGUCACCUUCACAGAGAGAUUAACA | 0.0493 ± 0.0097 |
| UAGUCUGUCACGAUCUCUGAGAGAUUAAGA | 0.0282 ± 0.0053 |
| UAGUGACAGUCCUUCUCUGAGAGUAUUAACA | 0.0116 ± 0.0023 |
| UUCUCUGUCACCUUCACUGAGAGAUUAACA | 0.392 ± 0.021 |
| UUCACUGUCACCUUCUCUGUGAGAUAAACA | 0.147 ± 0.02 |
| UUCACUGUCACCUUCUCUGAGAGAUUAAGCA | 0.228 ± 0.029 |
| AUCACUGUCACAUUCUCUGAGAGAUUAACA | 0.799 ± 0.035 |
| UAGUGACAGUCCUUAUCUGAGAGAUUAACA | 0.0135 ± 0.0037 |
| UAGUGUGUCACCUUCUCUGAGACUUUAACA | 0.0528 ± 0.01 |
| AUCACUGUCACCUUCACUCAGAGAUUAACA | 0.0516 ± 0.009 |
| UAGUCUGUCACCUUCUCUGAGGAGAUUAACA | 0.00857 ± 0.0043 |
| UAGUGAGUCAGCCUUCUCUGAGAGAUUAACA | 0.176 ± 0.02 |
| UAGACUGUCACCUUCUCUGAGAGUUUAUCA | 0.0519 ± 0.016 |
| UAGUCUGUCACGUUCUCAGAGAGAUUAACA | 0.165 ± 0.013 |
| AUCACACUCACCUUCUCUGAGAGAUAUUGA | 0.047 ± 0.016 |
| UAGUGAGACACCUUCUCUGAGAGAUUUUGA | 0.0111 ± 0.0043 |
| AUCACUGUCACCUUCUUGAGAGAUUAACA | 0.174 ± 0.051 |
| UAGACUGACACCUUCUCUGACAGAUUAACA | 0.275 ± 0.026 |
| UAGUCUGUCACCUUCUCAGAGUGAUUAACA | 0.0145 ± 0.0045 |
